Results published in publication PMC4336329 (PLoS ONE, 2015).
In all, about 310,000 compounds went through this assay and about 14,000 (4.5%) showed an effect of 50% or more. Effects have a minus sign here. The list shows a part of the results.

These molecules were tested against human ether-à-go-go-related gene (hERG) potassium channel (human, UniProt Q12809) (assay: primary screen, population patch clamp on CHO cells stably expressing hERG).
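Note: peak tail current of the secondary pulse compared with the same well before compound.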

human ether-à-go-go-related gene (hERG) potassium channel, sequence (Q12809 whole entry, looked up): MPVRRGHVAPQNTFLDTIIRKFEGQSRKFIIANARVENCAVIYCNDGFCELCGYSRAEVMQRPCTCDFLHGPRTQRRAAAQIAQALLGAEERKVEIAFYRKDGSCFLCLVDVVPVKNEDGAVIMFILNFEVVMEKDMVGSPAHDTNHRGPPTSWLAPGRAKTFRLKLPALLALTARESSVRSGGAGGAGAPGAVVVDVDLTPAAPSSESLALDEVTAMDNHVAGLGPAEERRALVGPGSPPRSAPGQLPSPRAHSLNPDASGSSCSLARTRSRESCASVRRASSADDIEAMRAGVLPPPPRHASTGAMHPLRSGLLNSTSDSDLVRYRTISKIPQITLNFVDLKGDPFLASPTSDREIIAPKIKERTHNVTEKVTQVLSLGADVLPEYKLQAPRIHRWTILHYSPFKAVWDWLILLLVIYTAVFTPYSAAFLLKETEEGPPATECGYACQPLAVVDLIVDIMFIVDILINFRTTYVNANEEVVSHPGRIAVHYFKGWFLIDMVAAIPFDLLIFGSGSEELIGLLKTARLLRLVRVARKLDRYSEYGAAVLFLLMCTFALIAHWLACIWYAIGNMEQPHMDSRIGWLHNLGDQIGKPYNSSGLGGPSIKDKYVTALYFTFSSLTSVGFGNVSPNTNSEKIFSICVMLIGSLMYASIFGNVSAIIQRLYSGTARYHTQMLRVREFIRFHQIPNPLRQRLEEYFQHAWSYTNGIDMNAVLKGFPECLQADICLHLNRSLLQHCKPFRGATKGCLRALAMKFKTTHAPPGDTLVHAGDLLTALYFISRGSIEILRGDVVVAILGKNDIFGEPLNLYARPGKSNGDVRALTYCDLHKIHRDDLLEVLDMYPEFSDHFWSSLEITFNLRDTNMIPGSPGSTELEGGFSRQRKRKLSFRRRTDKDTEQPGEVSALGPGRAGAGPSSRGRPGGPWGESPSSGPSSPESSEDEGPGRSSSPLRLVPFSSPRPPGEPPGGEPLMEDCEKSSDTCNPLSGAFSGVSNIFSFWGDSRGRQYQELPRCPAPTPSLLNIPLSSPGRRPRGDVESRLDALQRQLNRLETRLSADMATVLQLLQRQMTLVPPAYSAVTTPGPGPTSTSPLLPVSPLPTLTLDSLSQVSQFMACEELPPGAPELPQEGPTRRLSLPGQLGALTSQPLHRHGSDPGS

SMILES	hERG current change (%, negative = inhibition) at 10uM [%]
CC1(C)CC(=O)C(C(O)c2ccccc2)C(C)(C)N1 (stereo not drawn)	13.5
COc1ccc(-c2[nH]ncc2CNC(C)CCn2cccn2)cc1F (stereo not drawn)	-2.23
COc1cccc(CNC(=O)CN(C)S(=O)(=O)c2ccc3c(c2)n(C)c(=O)c(=O)n3C)c1	10.3
Cc1nn2c(C(F)(F)F)cc(-c3ccc(Cl)cc3)nc2c1C(=O)N1CCOCC1	-13.6
CN(CC(=O)Nc1cccc(F)c1)C(=O)CN1C(=O)C2CCCCC2C1=O (stereo not drawn)	-0.73
Cc1ccc(CNC(=O)Nc2ccc(F)cc2)n1C	9.32
CC(C)c1ccc2c(c1)C1Cc3ccccc3C1N2.O=C(O)C(F)(F)F (stereo not drawn)	4.21
c1ccc(Cn2c(NCc3ccco3)nc3ccccc32)cc1	-51
COCCn1nnnc1CN(Cc1cc2cc(OC)c(OC)cc2[nH]c1=O)C1CCCC1	1.74
COc1ccc(NC(=O)CN(C)S(=O)(=O)c2cccc3cccnc23)cc1	-15.5
NC(=O)CSc1nc2ccccc2c(=O)n1-c1ccccc1	20.1
CCC1CCCCN1C(=O)c1ccc2nc(Cc3ccc(OC)cc3)oc2c1 (stereo not drawn)	-11.7
CCN(CC(=O)Nc1ccc(S(N)(=O)=O)cc1)S(=O)(=O)c1cc(C)ccc1OC	3.91
Cc1ccccc1NC(=O)C1CC(Cl)=CCC1C(=O)O (stereo not drawn)	-11.3
CN(CC(=O)Nc1ccccc1Cl)C(=O)CSc1nc2ccccc2s1	-1.96
FC(F)(F)c1ccc(C2NCCc3sccc32)cc1 (stereo not drawn)	-10.1
Cc1ccnc(NC(c2ccccc2O)c2oc(CO)cc(=O)c2O)c1 (stereo not drawn)	3.92
COc1ccc(-c2nc3cc(C)ccn3c2NCC2CCCO2)cc1OC.Cl (stereo not drawn)	-71.2
CC(=O)N1CCCc2cc(S(=O)(=O)N3CCCC3)ccc21	15.3
C=CCN=C(NC#N)SCC(=O)c1cccc(OC)c1	-1.17
Cc1c(NC(=O)c2cnc(Cl)c(Cl)c2)c(=O)n(-c2ccccc2)n1C	2.95
Cc1ccc(S(=O)(=O)N2CCCCC2CCNC(=O)C(=O)Nc2ccccc2F)cc1 (stereo not drawn)	2.2
COc1ccc(-c2nc(CN3CCC(C(=O)N4CCOCC4)CC3)c(C)o2)cc1OC	-6.54

SMILES	hERG current change (%, negative = inhibition) at 10uM [%]
CCC(C)c1ccccc1NC(=O)COC(=O)CCc1cc(OC)c(OC)c(OC)c1 (stereo not drawn)	2.71
COc1cc2cc(CN(CCc3ccccc3C)C(=S)NCCCN3CCOCC3)c(=O)[nH]c2cc1OC	-38.4
COc1cc(F)ccc1CN1CCC(n2nccc2NC(=O)C2CCOC2)CC1 (stereo not drawn)	-14.5
COc1cccc(OC)c1/C=C/C(=O)NC1CCCCC1	12.5
O=C(CNc1ccccc1OC(F)F)N1CCc2ccccc21	21.9
Cc1cc(=O)oc2cc(OCC(=O)Nc3nnc(CC(C)C)s3)ccc12	-2.86
COc1ccc(CCn2nnnc2CN2CCN(C(=O)c3ccco3)CC2)cc1OC	-35
O=C(NN1C(=O)/C(=C/c2cccnc2)SC1=S)C(c1ccccc1)c1ccccc1	-5.67
CC(=O)c1cccc(NC(=O)c2cc(-c3ccc(C)cc3)on2)c1	17.3
CC(NC(=O)c1ccc(CS(C)(=O)=O)cc1)c1ccc(-c2ccccc2)cc1 (stereo not drawn)	15.4
COc1ccc2nc(-c3ccccn3)[nH]c2c1	6.8
COCC(C)NC(=O)c1ccc(Cl)c(Cl)c1 (stereo not drawn)	13.5
Cc1ccc(OCC(=O)Nc2c3c(nn2C(C)(C)C)CS(=O)(=O)C3)cc1	-41.4
CNC(=O)CSc1nnc(-c2ccccc2F)n1CCc1ccccc1	-26.7
Cc1cccc2cc(C3CC(c4ccco4)=NN3C(=O)CCC(=O)O)c(Cl)nc12 (stereo not drawn)	9.26
COc1ccc(N2CCN(C(CNC(=O)C3CCCCC3)c3cccnc3)CC2)cc1 (stereo not drawn)	0.00358
COc1ccc(NC(=O)c2cc(S(=O)(=O)N(Cc3ccccc3)c3ccccc3)ccc2Cl)cn1	-4.28
CC(=O)c1cn(CC(=O)Nc2ccc(C)cc2)c2ccccc12	8.06
O=C(/C=C/c1ccccc1Cl)N(Cc1cccs1)C1CCS(=O)(=O)C1 (stereo not drawn)	-31.5
Cn1c(C(O)C(O)c2ccccc2)nc2ccccc21 (stereo not drawn)	7.08
Cc1cc(C(=O)OCC(=O)NCCc2ccc(S(N)(=O)=O)cc2)c2ccccc2n1	14.6
COc1ccc(OCc2cc(C(=O)NCc3nc(C)cs3)no2)c(Cl)c1	-17.2
O=C(CNC(=O)c1ccccc1)NC1(C(=O)NC2CCCC2)CCCCC1	5.11

SMILES	hERG current change (%, negative = inhibition) at 10uM [%]
O=C(CCn1c(=S)[nH]c2cc3c(cc2c1=O)OCO3)NCc1ccccc1Cl	23
Cc1nc(C(=O)Nc2ccc(F)cc2)nn1-c1ccc([N+](=O)[O-])cc1	-67.4
CCCNc1nc2c(c(=O)n(C)c(=O)n2C)n1CCC(C)C	4.05
CCn1cc(C(=O)O)c(=O)c2cnc(N3CCNCC3)nc21	-65.4
COc1ccc(NC2=NC(=S)N(c3cccc(C)c3)C23CCCCC3)cc1	-3.96
COc1ccc(-c2nn(CC(=O)NCCc3ccccc3)c(=S)n2C)cc1	-18.2
COc1ccc(C(=O)Nc2cnn(Cc3ccc(Cl)cc3)c2)cc1OC	-29
CCCCCCCOc1ccc(C(=O)Nc2cccnc2)cc1	16.5
CN(CC(=O)Nc1ccc(F)c(Cl)c1)S(=O)(=O)c1cccc2nsnc12	-21.1
COc1ccc(-c2csc(C)n2)cc1OC	4.47
CC(C)CCNC(=O)c1ccc(Cl)c(N)c1	18.9
COc1cc2nc(C3CCC3)n(NC(=O)c3ccco3)c(=O)c2cc1OC	-15.5
Cc1cccc(Nc2nc(N)nc(CN3CCN(c4ccccc4F)CC3)n2)c1	-68.2
O=C(CSc1nnc(-c2cccs2)n1CC1CCCO1)c1cc2ccccc2o1 (stereo not drawn)	-38.9
COC(=O)c1ccc(CSc2nnc(-c3ccncc3)o2)cc1	2.87
COC(=O)c1ccc(Cn2cc(/C=C\[N+](=O)[O-])c3ccccc32)o1	-16.4
CC(=O)c1cc(Cc2csc(C(C)=O)c2)cs1	2.75
CCSc1ccccc1-c1nc(-c2ccncc2)no1	-4.39
Clc1cc(Cl)cc(Nc2ncn[nH]2)c1	-8.8
O=C(c1sc(N2CCOCC2)nc1-c1ccccc1)N1CCCCC1	29.9
N#CCCSCc1ccc(OCC(=O)O)cc1	-1.48
COCC(=O)N1CCC(Oc2ccc(C(=O)N3CCCCCCC3)cc2)CC1	22.7
COc1ccc(CCNC(=O)c2cc(-c3ccccc3OC)on2)cc1OC	1.28

SMILES	hERG current change (%, negative = inhibition) at 10uM [%]
O=[N+]([O-])c1cccc(-c2nnc(-c3ccccc3)o2)c1	10.9
N#CCC(=O)N/N=C/c1c2ccccc2cc2ccccc12	-10.4
CC(=O)OCCOCn1cnn2c(=O)c(Br)c(C)nc12	-7.03
COc1ccc(NC(=O)CSc2nc3[nH]ncc3c(=O)n2-c2ccccc2C)cc1OC	0.645
CC1(Cc2cn(CCC#N)c3ccccc23)OCCO1	7.64
O=C1C2CC=CCC2C(=O)N1c1nc2n(n1)C(c1ccccc1)CC(c1ccccc1)N2 (stereo not drawn)	-52.6
COc1cc(C(=O)NCCC(=O)NC(C)C)cc(OC)c1OC	12.8
CCOC(=O)COn1c(=O)c[n+]([O-])c2ccccc21	-2.82
Cc1cc(C)n(-c2ccc(C(=O)OCC(=O)Nc3ccc(Cl)cc3[N+](=O)[O-])cc2)n1	16.7
Cc1ccccc1NC(=O)Cc1nc(COC(=O)c2cc([N+](=O)[O-])ccc2N)cs1	6.4
COc1ccccc1CN1[C@@H](CC(=O)O)c2cc(F)ccc2S1(=O)=O	17.2
Cc1cc(C(=O)NCc2ccco2)on1	4.81
O=C(CCC(=O)Nc1ccccc1Cl)NNC(=O)c1ccco1	11
O=C(Nc1nc(-c2ccccc2)cs1)C1COc2ccccc2O1 (stereo not drawn)	-8.08
Cc1ccc(C(=O)N2CCc3cc4c(cc3C2C)OCCCO4)cc1 (stereo not drawn)	11.5
CCOC(=O)N/N=C/c1ccc(F)cc1F	8.02
COc1cc(C(=O)NCCc2ncccc2C)ccc1OC1CCN(C(C)=O)CC1	21.9
CCOC(=O)CSc1nc(N2CCOCC2)c2c(c1C#N)CC(C)(C)N(C)C2	-33.4
COc1cccc(NC(=O)COC(=O)c2cc(=O)c3ccccc3o2)c1	15.4
Cc1nc2ccc(Cl)cn2c1P(=S)(N1CCOCC1)N1CCOCC1	-4.47
Cc1cc2ncn(C3CC(=O)N(Cc4ccccc4)C3=O)c2cc1C (stereo not drawn)	4.71
